Source: PubChem BioAssay AID1030 (National Center for Advancing Translational Sciences (NCATS), 2008)
Where “and” joins values, the source holds several entries; their conditions need not be identical. Identical values can stand only once. Hit rate of the full screen: of about 220,000 compounds, about 16,000 (7.3%) were called active. The inconclusive results got no clear call from the source; some entries with a clear call stand among them for comparison. Calls follow the shape of the dose curve; as a rule, active = well fitted inhibition curve with a large enough effect (not every such curve was filed as active); inconclusive = small, poorly fitted or top-dose-only effect, or another doubt; inactive = no such curve, though single readings can be large or run the other way. Potencies of inconclusive entries are doubtful fits and often do not repeat.

target: Aldehyde dehydrogenase 1A1 (Homo sapiens) (UniProt P00352); assay: qHTS Assay for Inhibitors of Aldehyde Dehydrogenase 1 (ALDH1A1); conditions: Purified ALDH1A1, NADH fluorescence, propionaldehyde substrate; series mostly up to 75.3 µM; activity, negative = inhibition: at the top concentration;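 as to activity, negative = inhibition: plate controls were no enzyme wells and a reference inhibitor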
Sequence of UniProt P00352 (P00352 whole entry, looked up): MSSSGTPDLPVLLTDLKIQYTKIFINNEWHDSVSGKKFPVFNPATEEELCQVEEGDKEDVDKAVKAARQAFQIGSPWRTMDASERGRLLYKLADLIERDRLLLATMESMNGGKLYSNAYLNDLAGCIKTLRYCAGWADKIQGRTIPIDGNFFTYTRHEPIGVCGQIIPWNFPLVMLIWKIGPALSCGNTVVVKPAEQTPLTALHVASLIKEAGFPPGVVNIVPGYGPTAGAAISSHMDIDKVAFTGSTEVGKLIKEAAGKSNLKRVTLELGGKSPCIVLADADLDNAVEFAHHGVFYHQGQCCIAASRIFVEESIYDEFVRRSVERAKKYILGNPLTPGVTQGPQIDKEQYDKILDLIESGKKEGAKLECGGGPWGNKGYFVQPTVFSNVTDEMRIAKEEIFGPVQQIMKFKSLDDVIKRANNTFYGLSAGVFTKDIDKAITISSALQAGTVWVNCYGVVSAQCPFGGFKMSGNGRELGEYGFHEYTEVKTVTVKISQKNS
Potency is read from the fitted curve at half-maximal effect; tags tell the direction and shape of the fitted curve.

activity, negative = inhibition, inactive:
N[C@@H](CCCCO)C(=O)O -10.3% [at 13.5 µM], Cc1ccc(C(=O)COC(=O)CCC(=O)NC2CCCCC2)cc1[N+](=O)[O-] -9.25%, O=C(Nc1ccc(C(=O)N2CCOCC2)cc1)c1cccs1 -7.52%, COCCNC(=O)NC(=O)CN1CCCc2ccccc21 2.75%, Cc1ccnc(NS(=O)(=O)c2ccc(NC(=O)Cc3cccs3)cc2)n1 -11.4%, CC(=O)Nc1ccn(Cc2c(F)cccc2Cl)n1 11.3%, CCC(=O)[C@]12O[C@@]3(C4C(=O)OCCC41)N(Cc1ccccc1)C(C)=C(C(=O)OC)C(c1ccccc1)N3C2=O (stereo not given in full) -5.43% [at 13.5 µM], Cc1cc(C)c(S(=O)(=O)NCCn2c(C)cc3ccccc32)c(C)c1 -3.64%, CCSc1cc(N2CCCC2)nc(-c2ccccc2Cl)n1 3.81%, CCOC(=O)c1c(C)oc2ccc(O)c(CN3CCCCC3)c12 -4.34%, Nc1ccc(C(=O)Nc2ccccc2C(=O)O)cc1 0.958%, COCC(=O)Nc1c(I)c(C(=O)NC[C@@H](O)CO)c(I)c(C(=O)N(C)C[C@@H](O)CO)c1I 4.19% [at 20.9 µM]

Potency, active:
C/C(=N\Nc1nc(C)c(C)s1)c1ccc([N+](=O)[O-])cc1 12.6 µM, Cc1ccn2c(C=O)c(-c3ccc(F)cc3)c(C=O)c2c1 12.6 µM, O=C(NCCc1ccccc1)c1ccc(-c2ccccc2C(F)(F)F)o1 25.1 µM, Cc1ccc(OC(=O)COc2ccccc2C)c(-n2nc3ccccc3n2)c1 31.6 µM, CCCC(=O)Nc1cccc(NC(=S)NC(=O)C(C)Oc2ccc(Cl)cc2Cl)c1 (stereo not given) 10 µM, O=C1NC2=C(C(=O)c3ccccc32)C(c2ccccc2)N1 (stereo not given) 15.8 µM, CC(C)COC(=O)C(C#N)c1nc2ccccc2nc1N1CCN(Cc2ccccc2)CC1 (stereo not given) 12.6 µM

Potency, inconclusive:
COc1ccc2oc(=O)c(C(=O)OCC(=O)c3ccc([N+](=O)[O-])cc3)cc2c1 11.9 µM [inhibitor, partial curve], O=Nc1onc(-c2ccc([N+](=O)[O-])cc2)c1NO 20 µM [inhibitor, single point], CC1=C(C(=O)OC(C)C)C(c2cccnc2)C2=C(CCCC2=O)N1 (stereo not given) 25.1 µM [inhibitor, partial curve], COc1ccc(-c2nc(SC)n(C)c(=O)c2C#N)cc1OC 39.8 µM [inhibitor, single point], O=C(COc1ccc(Cl)cc1Cl)Nc1c(-c2cccs2)nc2ccccn12 39.8 µM [inhibitor, single point], N#CC1=C(N)C(C#N)(C#N)[C@H](c2c(F)cccc2F)[C@H]2CC3(CC=C12)OCCO3 35.5 µM [inhibitor, partial curve], c1ccc(-c2nc(NCc3cccnc3)c3oc4ccccc4c3n2)cc1 39.8 µM [inhibitor, single point], CCOC(=O)C(C)Oc1cccc2c(=O)n(CC(=O)N3CCc4ccccc43)ccc12 (stereo not given) 25.1 µM [inhibitor, single point], O=C(NCCN1C(=O)S/C(=C\c2cccnc2)C1=O)C1CC(=O)N(Cc2ccco2)C1 (stereo not given) 39.8 µM [inhibitor, single point], COc1ccc(-c2oc3ccccc3c(=O)c2OC(=O)c2ccc(C)cc2)cc1 8.91 µM [inhibitor, partial curve], CCN1CCN(Cc2cc(=O)oc3ccc(Cl)cc23)CC1 39.8 µM [inhibitor, single point], CC1(C)Cc2c(sc3nc(SCC(=O)NCc4ccco4)n(-c4ccccc4)c(=O)c23)CS1 28.2 µM [inhibitor, partial curve], CS(=O)(=O)N1CCN(C(=O)C(Sc2ccccc2)c2ccccc2)CC1 (stereo not given) 39.8 µM [inhibitor, single point], Clc1cccc(Nc2nnc(-c3ccccc3)c3ccccc23)c1 31.6 µM [inhibitor, single point] and 3.98 µM [inhibitor, full curve], O=C(CN1C(=O)/C(=C\c2cccc(Cl)c2)Oc2ccccc21)N1CCN(c2ccccn2)CC1 31.6 µM [inhibitor, partial curve], Cc1ccc(S(=O)(=O)C2(C(=O)N3CCCCC3C)CC2)cc1 (stereo not given) 31.6 µM [inhibitor, single point], Cc1ccccc1C1CC(c2cccs2)Nc2nnnn21 (stereo not given) 25.1 µM [inhibitor, single point], CCCc1nnc(NC(=O)Cn2c(=O)oc3cc(Br)ccc32)s1 39.8 µM [inhibitor, single point], N#CC1(Cc2ccc(Cl)cc2)c2ccccc2C=CN1C(=O)c1ccccc1 (stereo not given) 14.1 µM [inhibitor, partial curve], Nc1c(C(=O)C2CC2)sc2nc(-c3cccs3)cc(C(F)(F)F)c12 25.1 µM [inhibitor, partial curve], O=C(NC(Cc1ccccc1)C(=O)O)/C(=C\c1ccco1)NC(=O)c1ccco1 (stereo not given) 39.8 µM [inhibitor, single point], Cc1c(-c2cccc(NC(=O)c3cccs3)c2)nc2ncccn12 22.4 µM [inhibitor, partial curve], O=C(NCc1cccnc1)/C(=C/c1ccc(-c2ccc(Cl)cc2)o1)S(=O)(=O)c1ccccc1 4.47 µM [inhibitor, partial curve], CC(C)n1c(N2CCN(C(=O)c3cccs3)CC2)nc2ccccc21 39.8 µM [inhibitor, single point], Cc1cc(C)n2nc(C(=O)Nc3ccc4c(c3)OCO4)cc2n1 35.5 µM [inhibitor, single point], CC1CCN(C(=O)CSc2nc3c(cnn3-c3ccccc3)c(=O)[nH]2)CC1 20 µM [inhibitor, single point]
